Values joined by “and” are separate entries in the source; they are usually repeats but may differ in a detail not shown here. Equal entries are not always repeated. For some of these results: A note “side channel” means that the fit belongs to a control or component signal, not to the main read-out. Some structures have more than one record in an assay (separate samples or runs), and their calls can disagree. Active and inactive are the calls of the source. Unless noted, the call rests on the fitted dose curve.
Key:
[1] = target: Ubiquitin carboxyl-terminal hydrolase 1 (Homo sapiens) (UniProt O94782); experiment: Inhibitors of USP1/UAF1: Pilot qHTS (AID 504865; active means well fitted curve in the direction sought with a large enough effect; inconclusive means small, poorly fitted or top-dose-only effect, or another doubt; inactive means no such curve, though single readings can be large; an effect the other way counts as inactive or inconclusive; further: potency means the concentration at half of the fitted maximal effect;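 further: rhodamine fluorescence freed from ubiquitin-rhodamine substrate followed over time; nearly all actives have a fitted effect of over 35% in size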; on activity change, negative = inhibition: top concentration of the series differs between compounds; on the % scale 0 is the no-effect control and ±100 the full control effect)
UniProt O94782, sequence (O94782 whole entry, looked up): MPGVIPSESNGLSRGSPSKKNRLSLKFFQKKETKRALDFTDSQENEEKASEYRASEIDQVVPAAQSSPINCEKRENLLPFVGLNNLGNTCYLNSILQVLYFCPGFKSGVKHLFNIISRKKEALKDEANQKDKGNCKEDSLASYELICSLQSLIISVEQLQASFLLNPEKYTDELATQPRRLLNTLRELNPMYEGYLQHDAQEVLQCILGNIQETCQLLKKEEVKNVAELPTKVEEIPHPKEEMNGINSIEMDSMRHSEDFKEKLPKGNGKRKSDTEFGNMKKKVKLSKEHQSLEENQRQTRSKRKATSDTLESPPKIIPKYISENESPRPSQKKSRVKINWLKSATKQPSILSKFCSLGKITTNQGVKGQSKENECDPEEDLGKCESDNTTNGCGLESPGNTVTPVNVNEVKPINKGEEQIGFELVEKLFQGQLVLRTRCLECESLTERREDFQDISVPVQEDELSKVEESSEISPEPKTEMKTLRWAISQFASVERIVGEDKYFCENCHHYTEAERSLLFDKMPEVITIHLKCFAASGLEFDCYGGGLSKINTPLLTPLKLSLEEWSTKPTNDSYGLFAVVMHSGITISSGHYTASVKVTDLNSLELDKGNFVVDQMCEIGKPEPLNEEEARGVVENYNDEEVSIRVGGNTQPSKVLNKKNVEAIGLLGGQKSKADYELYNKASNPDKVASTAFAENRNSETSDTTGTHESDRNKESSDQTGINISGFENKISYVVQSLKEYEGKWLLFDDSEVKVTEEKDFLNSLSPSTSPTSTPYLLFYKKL
In short: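 1nM USP1/UAF1 + cpd, 15 min RT; start w/ Ub-Rho 150nM final; kinetic FL 480/540 nm, 6 reads q60 s. Buffer 50mM HEPES pH 7.8, 0.5mM EDTA, 1mM TCEP, 0.01% Tween-20, 0.1 mg/ml BSA.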

[2] = target: Estrogen receptor (Homo sapiens) (UniProt P03372); experiment: qHTS assay for small molecule agonists of estrogen receptor alpha signaling (AID 588514); conditions: ER-alpha-UAS-bla HEK293, beta-lactamase ratio, 18 h; activation: at 76.8 µM (top of the series), percent of full estradiol response, vehicle zero unless noted; further: nearly all actives have a fitted effect of over 70% in size; further: potency means the concentration at half of the fitted maximal effect;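 on activation: 0% = vehicle only and 100% = reference agonist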
UniProt P03372, sequence (P03372 whole entry, looked up): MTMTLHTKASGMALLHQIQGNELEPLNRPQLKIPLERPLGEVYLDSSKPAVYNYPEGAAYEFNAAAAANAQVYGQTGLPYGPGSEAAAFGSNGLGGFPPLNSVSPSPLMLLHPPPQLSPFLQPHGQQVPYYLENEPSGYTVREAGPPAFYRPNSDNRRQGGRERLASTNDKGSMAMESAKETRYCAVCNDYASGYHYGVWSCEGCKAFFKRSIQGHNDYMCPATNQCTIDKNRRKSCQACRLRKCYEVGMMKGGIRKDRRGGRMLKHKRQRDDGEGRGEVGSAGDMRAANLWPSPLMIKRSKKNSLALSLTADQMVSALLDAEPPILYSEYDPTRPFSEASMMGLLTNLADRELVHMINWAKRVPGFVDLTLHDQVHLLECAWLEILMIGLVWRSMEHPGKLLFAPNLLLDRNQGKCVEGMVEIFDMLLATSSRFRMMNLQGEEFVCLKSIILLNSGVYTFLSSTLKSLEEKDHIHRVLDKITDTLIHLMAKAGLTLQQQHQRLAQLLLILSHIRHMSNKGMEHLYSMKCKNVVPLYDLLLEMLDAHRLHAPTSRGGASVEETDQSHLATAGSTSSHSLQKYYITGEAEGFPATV
In short: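 Efficacy is expressed against 20 nM 17-beta-estradiol (100%) and DMSO basal (0%); EC50 from Hill equation. Assay: beta-lactamase reporter in ER-alpha-UAS-bla HEK 293 cells, 18 h compound incubation, CCF4 detection.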

[3] = target: Glucocorticoid receptor (Homo sapiens) (UniProt P04150); experiment: qHTS assay for small molecule antagonists of glucocorticoid receptor signaling (AID 588533; active means well fitted inhibition curve with a large enough effect in the signal ratio, with a control signal flat, not every such curve was filed as active; inconclusive means small, poorly fitted or top-dose-only effect, or effect the other way, or a change in a side signal; the % refers to the signal ratio;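 further: cells stimulated with 2 nM dexamethasone as agonist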; further: potency means the concentration at half of the fitted maximal effect; on activity change, negative = inhibition: on the % scale 0 is the no-effect control and ±100 the full control effect); conditions: HeLa MMTV-bla, GRE beta-lactamase ratio, antagonist mode, 18 h; activity change, negative = inhibition: at 76.8 µM (top of the series)
[4] = target: Peroxisome proliferator-activated receptor delta (Homo sapiens) (UniProt Q03181); experiment: qHTS assay for small molecule antagonists of peroxisome proliferator-activated receptor delta signaling (AID 588535; active means well fitted inhibition curve with a large enough effect in the signal ratio, with a control signal flat, not every such curve was filed as active; inconclusive means small, poorly fitted or top-dose-only effect, or effect the other way, or a change in a side signal; inactive means no such curve, though single readings can be large or run the other way; the % refers to the signal ratio; further: potency means the concentration at half of the fitted maximal effect); conditions: HEK293T PPARd-UAS-bla, beta-lactamase FRET ratio, 18 h; activity change, negative = inhibition: at 76.7 µM (top of the series) unless noted
UniProt Q03181, sequence (Q03181 whole entry, looked up): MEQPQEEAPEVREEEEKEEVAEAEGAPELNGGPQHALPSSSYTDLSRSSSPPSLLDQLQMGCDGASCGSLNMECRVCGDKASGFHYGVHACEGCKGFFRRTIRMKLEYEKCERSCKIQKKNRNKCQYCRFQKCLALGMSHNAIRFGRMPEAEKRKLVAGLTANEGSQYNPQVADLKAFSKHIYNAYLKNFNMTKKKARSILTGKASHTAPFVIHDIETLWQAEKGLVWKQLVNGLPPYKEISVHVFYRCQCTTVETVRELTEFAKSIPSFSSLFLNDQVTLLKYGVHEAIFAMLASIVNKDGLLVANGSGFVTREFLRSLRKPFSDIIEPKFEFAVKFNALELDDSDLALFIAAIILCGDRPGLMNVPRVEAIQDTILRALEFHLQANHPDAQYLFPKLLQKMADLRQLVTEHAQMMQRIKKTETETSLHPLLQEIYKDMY
In short: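 Fluorescence from CCF4-loaded GeneBLAzer PPAR-delta-UAS-bla HEK293T cells (2 hrs RT loading) quantified reporter inhibition after an 18 hr, 37 C compound exposure across a titration.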

[5] = target: Peroxisome proliferator-activated receptor gamma (Homo sapiens) (UniProt P37231); experiment: qHTS assay for small molecule agonists of peroxisome proliferator-activated receptor gamma signaling (AID 588536; active means well fitted curve in the direction sought with a large enough effect in the signal ratio, with a control signal flat, not every such curve was filed as active; inconclusive means small, poorly fitted or top-dose-only effect, or effect the other way, or a change in a side signal; inactive means no such curve, though single readings can be large or run the other way; the % refers to the signal ratio; further: potency means the concentration at half of the fitted maximal effect;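 on activation: 0% = DMSO basal wells and 100% = rosiglitazone at 2 µM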); conditions: HEK293 PPARg-UAS-bla, beta-lactamase ratio, 16 h; activation: at 76.7 µM (top of the series), percent of rosiglitazone response, DMSO as zero
In short: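 Compound treatment: 16 h, 37 C, HEK293 GeneBLAzer cells. Detection: CCF4, 2 h RT. Values: Hill-fit EC50, efficacy as % of 2 uM rosiglitazone.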

[6] = target: Peroxisome proliferator-activated receptor gamma (Homo sapiens) (UniProt P37231); experiment: qHTS assay for small molecule antagonists of peroxisome proliferator-activated receptor gamma signaling (AID 588537; active means well fitted inhibition curve with a large enough effect in the signal ratio, with a control signal flat, not every such curve was filed as active; inconclusive means small, poorly fitted or top-dose-only effect, or effect the other way, or a change in a side signal; the % refers to the signal ratio; further: potency means the concentration at half of the fitted maximal effect;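 further: reporter cells co-stimulated with 50 nM rosiglitazone agonist during compound treatment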; on activity, negative = inhibition: % of control where 0% means no effect); conditions: HEK293 PPARg-UAS-bla, beta-lactamase ratio, antagonist mode; activity, negative = inhibition: at 76.8 µM (top of the series)
In short: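 Fluorescence at 460 and 530 nm (405 nm excitation) reported beta-lactamase cleavage of CCF4 after 2 h room-temperature loading. HEK293 reporter cells in 1% charcoal/dextran-treated FBS had received compound and rosiglitazone for 16 h.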

[7] = target: Estrogen receptor (Homo sapiens) (UniProt P03372); experiment: qHTS assay for small molecule antagonists of estrogen receptor alpha signaling (AID 588513; active means well fitted curve in the direction sought with a large enough effect in the signal ratio, with a control signal flat, not every such curve was filed as active; inconclusive means small, poorly fitted or top-dose-only effect, or effect the other way, or a change in a side signal; inactive means no such curve, though single readings can be large or run the other way; the % refers to the signal ratio; further: potency means the concentration at half of the fitted maximal effect); conditions: ER-alpha-UAS-bla HEK293, beta-lactamase ratio, antagonist mode; activity, negative = inhibition: at 76.9 µM (top of the series) unless noted
In short: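 Beta-lactamase reporter, antagonist mode, HEK 293 GripTite cells; 0.5nM E2 stimulus, 18 h, 37 C; CCF4 dye 2 h RT; fluorescence. IC50 and efficacy from Hill fits, normalized to E2 and DMSO.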

[8] = target: Vitamin D3 receptor (Homo sapiens) (UniProt P11473); experiment: qHTS assay for small molecule antagonists of vitamin D receptor signaling (AID 588541); conditions: HEK293T VDR-UAS-bla, beta-lactamase ratio, antagonist mode; activity change, negative = inhibition: at 76.7 µM (top of the series); further: potency means the concentration at half of the fitted maximal effect;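 on activity change, negative = inhibition: receptor activated by calcitriol during compound treatment; on the % scale 0 is the no-effect control and ±100 the full control effect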
[9] = target: Androgen receptor (Homo sapiens) (UniProt P10275); experiment: qHTS assay for small molecule agonists of androgen receptor signaling (AID 588515; active means well fitted curve in the direction sought with a large enough effect in the signal ratio, with a control signal flat; inconclusive means small, poorly fitted or top-dose-only effect, or effect the other way, or a change in a side signal; inactive means no such curve, though single readings can be large or run the other way; the % refers to the signal ratio; further: potency means the concentration at half of the fitted maximal effect); conditions: AR-UAS-bla HEK293, beta-lactamase ratio, agonist 16 h; activation: stronger effect = higher value
UniProt P10275, sequence (P10275 whole entry, looked up): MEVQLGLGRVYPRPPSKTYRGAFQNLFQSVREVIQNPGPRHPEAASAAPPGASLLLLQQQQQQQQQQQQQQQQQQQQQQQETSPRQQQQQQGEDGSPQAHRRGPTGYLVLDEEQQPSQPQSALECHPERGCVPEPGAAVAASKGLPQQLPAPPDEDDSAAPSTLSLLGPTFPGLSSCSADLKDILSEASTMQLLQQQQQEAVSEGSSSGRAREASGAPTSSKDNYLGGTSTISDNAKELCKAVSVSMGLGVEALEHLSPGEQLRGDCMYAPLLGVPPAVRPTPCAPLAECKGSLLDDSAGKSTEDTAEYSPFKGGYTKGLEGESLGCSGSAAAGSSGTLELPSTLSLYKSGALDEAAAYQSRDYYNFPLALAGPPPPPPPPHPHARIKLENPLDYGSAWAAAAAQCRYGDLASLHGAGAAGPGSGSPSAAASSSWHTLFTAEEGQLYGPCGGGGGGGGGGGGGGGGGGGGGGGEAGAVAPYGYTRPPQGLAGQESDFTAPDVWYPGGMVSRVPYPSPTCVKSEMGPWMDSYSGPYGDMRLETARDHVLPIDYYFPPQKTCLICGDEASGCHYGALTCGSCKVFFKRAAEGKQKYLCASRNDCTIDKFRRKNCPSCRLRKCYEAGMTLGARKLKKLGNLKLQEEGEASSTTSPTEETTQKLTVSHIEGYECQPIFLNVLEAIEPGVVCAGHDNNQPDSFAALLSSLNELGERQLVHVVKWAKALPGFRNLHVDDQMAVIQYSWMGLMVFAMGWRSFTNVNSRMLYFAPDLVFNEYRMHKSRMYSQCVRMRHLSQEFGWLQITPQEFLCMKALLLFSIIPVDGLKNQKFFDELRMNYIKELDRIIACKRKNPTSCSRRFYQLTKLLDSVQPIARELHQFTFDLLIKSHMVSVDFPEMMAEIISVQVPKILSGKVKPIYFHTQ
In short: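 Stimulation of an AR-responsive β-lactamase reporter in GripTite HEK293 cells was measured after 16 h compound exposure at 37 °C, via CCF4 fluorescence after 2 h RT. EC50 from Hill fits, normalized to R1881 at 30 nM.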

[10] = target: Androgen receptor (Homo sapiens) (UniProt P10275); experiment: qHTS assay for small molecule antagonists of androgen receptor signaling (AID 588516; active means well fitted curve in the direction sought with a large enough effect in the signal ratio, with a control signal flat, not every such curve was filed as active; inconclusive means small, poorly fitted or top-dose-only effect, or effect the other way, or a change in a side signal; inactive means no such curve, though single readings can be large or run the other way; the % refers to the signal ratio; further: potency means the concentration at half of the fitted maximal effect); conditions: AR-UAS-bla HEK293, beta-lactamase ratio, antagonist mode, 16 h; activity change, negative = inhibition: at 76.8 µM (top of the series)
In short: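 Antagonist mode: inhibition of R1881-stimulated (10 nM final) bla reporter in GeneBLAzer AR HEK 293 cells, 16 h at 37C, compounds titrated. IC50 and efficacy from Hill-equation fits of 405/460–530 nm FRET ratios.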

[11] = target: Glucocorticoid receptor (Homo sapiens) (UniProt P04150); experiment: qHTS assay for small molecule agonists of glucocorticoid receptor signaling (AID 588532; active means well fitted curve in the direction sought with a large enough effect in the signal ratio, with a control signal flat; inconclusive means small, poorly fitted or top-dose-only effect, or a change in a side signal; inactive means no such curve, though single readings can be large or run the other way; the % refers to the signal ratio; further: potency means the concentration at half of the fitted maximal effect;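 on activation: 100% = dexamethasone at 0.1 µM and 0% = DMSO only wells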); conditions: HeLa MMTV-bla, beta-lactamase ratio, agonist, 18 h; activation: stronger effect = higher value, percent of dexamethasone control, DMSO zero
In short: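 MMTV-bla HeLa beta-lactamase reporter cells in 1% charcoal/dextran FBS medium, compounds up to 92 uM for 18 h at 37 C, CCF4 readout; normalized to 0.1 uM dexamethasone (100%), EC50 and efficacy from Hill fits.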

[12] = qHTS for Inhibitors of ATXN expression: Validation of Cytotoxic Assay (AID 588349; active means well fitted curve in the direction sought with a large enough effect; inconclusive means small, poorly fitted or top-dose-only effect, or another doubt; inactive means no such curve, though single readings can be large; an effect the other way counts as inactive or inconclusive; further: on the % scale 0 is the no-effect control and ±100 the full control effect)
In short: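 Titrated compounds are added to cultured HEK293 cells, which are then held at 37 degrees C for 72 hr; loss of intracellular ATP, measured with CellTiter Glo, indicates toxicity.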

[13] = target: Bile acid receptor (Homo sapiens) (UniProt Q96RI1); experiment: qHTS assay for small molecule antagonists of farnesoid X receptor signaling (AID 588526); conditions: HEK293T FXR-UAS-bla, beta-lactamase ratio, antagonist mode; activity change, negative = inhibition: at 76.7 µM (top of the series); further: potency means the concentration at half of the fitted maximal effect
In short: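 Antagonist mode: titrated compounds tested against chenodeoxycholic acid stimulation (normalized to 50 uM CDCA and DMSO) in GeneBLAzer HEK293T cells for 16 h. Beta-lactamase read by CCF4 fluorescence; IC50 from Hill fits.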
Tags describe the fitted curve by direction and shape or compound fluorescence and quenching.

Compound: COc1ccc(C(c2ccc(OC)cc2)C(Cl)(Cl)Cl)cc1
- Potency [1]: inconclusive: 39.8 µM [inhibitor, partial curve]
- Potency [2]: inconclusive: 3.98 µM [activator, full curve, poor fit] and inconclusive: 7.94 µM [activator, partial curve] and inconclusive: 3.98 µM [activator, full curve]
- Potency [3]: inconclusive: 31.6 µM [inhibitor, partial curve, poor fit] and inconclusive: 44.7 µM [inhibitor, partial curve, poor fit]
- activity change, negative = inhibition [3]: inconclusive: -15.8%
- Potency [4]: inconclusive: 44.7 µM [side channel, rising, partial curve]
- activity change, negative = inhibition [4]: inconclusive: -64.2% and inconclusive: -58.6%
- activation [5]: inconclusive: -12.3%
- Potency [6]: active: 28.2 µM

Compound: CC[n+]1c(-c2ccccc2)c2cc(N)ccc2c2ccc(N)cc21
- Potency [1]: active: 39.8 µM
- Potency [7]: inconclusive: 20 µM [falling, partial curve, poor fit]
- Potency [2]: inactive
- Potency [4]: active: 31.6 µM
- activation [5]: inconclusive: -13.2%
- Potency [6]: inconclusive: 44.7 µM [side channel, rising, single point]
- activity change, negative = inhibition [8]: inconclusive: -57.9%

Compound: CC(=O)[O][Hg][c]1ccccc1
- Potency [1]: active: 50.1 µM
- Potency [7]: active: 2.24 µM [inconclusive]
- Potency [2]: inconclusive: 8.91 µM [side channel, rising, single point]
- activation [2]: inconclusive: 8.81%
- Potency [9]: inconclusive: 6.31 µM [side channel, rising, full curve] and inconclusive: 5.62 µM [side channel, rising, full curve]
- Potency [10]: active: 2.24 µM
- activation [11]: inactive: 23.7% and inconclusive: -1.03%
- Potency [3]: active: 0.141 µM
- Potency [4]: active: 2.82 µM
- Potency [5]: inconclusive: 28.2 µM [side channel, falling, full curve, poor fit]
- activation [5]: inconclusive: 17.6%
- Potency [6]: inconclusive: 5.01 µM [side channel, rising, full curve]
- Potency [8]: active: 1.58 µM and active: 2.51 µM

Compound: CC(=O)[C@H]1CC[C@H]2[C@@H]3CC[C@H]4C[C@](C)(O)CC[C@]4(C)[C@H]3CC[C@]12C
- Potency [1]: inactive

Compound: NCC1(CC(=O)O)CCCCC1
- Potency [1]: inconclusive: 35.5 µM [inhibitor, partial curve, poor fit]
- Potency [12]: inactive

Compound: CN(C)C(=O)Oc1cc(OC(=O)N(C)C)cc(C(O)CNC(C)(C)C)c1 (stereo not drawn)
- Potency [1]: inactive

Compound: CC(C)(C)CC(C)(C)c1ccc(O)cc1
- Potency [1]: inconclusive: 25.1 µM [inhibitor, full curve]
- activity change, negative = inhibition [3]: inconclusive: -119%

Compound: Oc1ccc(Cl)cc1Cc1ccccc1
- Potency [1]: inconclusive: 50.1 µM [inhibitor, partial curve]
- Potency [9]: inconclusive: 44.7 µM [side channel, rising, partial curve, poor fit]
- Potency [3]: inconclusive: 31.6 µM [activator, single point]
- Potency [4]: inactive
- Potency [6]: inconclusive: 44.7 µM [fluorescent, side channel, single point]
- activity, negative = inhibition [6]: inconclusive: -20.2%

Compound: CCC(=O)O[C@H]1CC[C@H]2[C@@H]3CCC4=CC(=O)CC[C@]4(C)[C@H]3CC[C@]12C
- Potency [1]: inconclusive: 15.8 µM [inhibitor, partial curve]
- activity, negative = inhibition [7]: inconclusive: -1.73%
- Potency [2]: active: 2.82 µM
- Potency [9]: active: 0.0089 µM
- Potency [11]: inconclusive: 25.1 µM [side channel, rising, single point]
- Potency [3]: active: 31.6 µM
- Potency [4]: inactive
- Potency [5]: inconclusive: 50.1 µM [falling, single point]
- Potency [6]: inconclusive: 44.7 µM [side channel, rising, single point]
- activity change, negative = inhibition [8]: inconclusive: 4.29%

Compound: CCC(C)(C)c1ccc(O)cc1
- Potency [1]: inconclusive: 25.1 µM [inhibitor, full curve, poor fit]
- activation [2]: inconclusive: 38.3% and inconclusive: 34.5%
- Potency [13]: inconclusive: 11.2 µM [cytotoxic, side channel, partial curve, poor fit]
- Potency [11]: inconclusive: 25.1 µM [side channel, falling, full curve, poor fit]
- Potency [5]: inactive
- Potency [6]: inactive

Compound: COC(C)(C)CCCC(C)C/C=C/C(C)=C/C(=O)OC(C)C (stereo not drawn)
- Potency [1]: inconclusive: 28.2 µM [inhibitor, full curve, poor fit] and inconclusive: 17.8 µM [inhibitor, partial curve, poor fit]
- activity change, negative = inhibition [10]: inconclusive: -33%

From PubChem BioAssay (NCATS)
